# Laboratory results taken from patent publication US8053445B2, “Utilities of olefin derivatives” (Shionogi & Co., Ltd., priority 2001, dated 2011).
# At least one read-out could not be matched to a standard name with certainty.
# Test system: promoter region of the gene encoding human apoAI
# Assay: Activity to enhance the expression of human apoAI (apoAI promoter-luciferase reporter in HepG2 cells)
# Type: cell-based
# Settings: HepG2 cells stably expressing apoAI promoter-luciferase reporter; compounds at 0 to 10 μg/mL, 24 hours incubation
# Method: The promoter region of the gene encoding human apoAI was isolated, and ligated upstream the structure gene of firefly luciferase to construct a reporter plasmid. The reporter plasmid and a marker plasmid conferring the neomycin resistance were co-infected to cell lines derived from human hepatoma, HepG2 cells, and the cell lines were incubated in a selection medium comprising DMEM medium containing 10% fetal calf serum supplemented with G418 (Final concentration: 0.7 mg/mL, Gibco) to give established strains that stably expressed the reporter molecule. The strains were seeded to a 96-well culture plates at a density of 50,000 cells per well, and incubated for 48 hours at 37° C. under an atmosphere of 5% carbon dioxide. […] The concentration of the compounds, which intensified the luciferase activity twice compared to that of control (DMSO without any compound of the invention added) was set as the minimal effective dose (MED).
row,Compound,MED (minimum effective dose: concentration of the compound which intensified the luciferase activity twice compared to control) [µg/mL]
1,"C(C=Cc1ccccn1)=Cc1ccoc1 [Ic-79, 2-(4-furan-3-yl-buta-1,3-dienyl)pyridine]",1.2
2,"C(C=Cc1ccccn1)=Cc1cccnc1 [Ic-54, 1-(3-pyridyl)-4-(2-pyridyl)-1,3-butadiene]",0.49
3,"COc1ccc(C=CC=Cc2ccccn2)cc1 [Ic-11, 2-[4-(4-methoxyphenyl)buta-1,3-dienyl]pyridine]",0.39
4,"O=[N+]([O-])c1ccc(C=CC=Cc2ccccn2)cc1 [Ic-40, 2-[4-(4-nitrophenyl)buta-1,3-dienyl]pyridine]",0.5
5,"C(/C=C/c1ccccn1)=C\c1ccsc1 [Ic-82, 2-(4-thiophen-3-yl-buta-1,3-dienyl)pyridine]",1.2
6,"CC(=CC=Cc1ccccn1)c1ccccc1 [Ic-75, 2-(4-phenyl-penta-1,3-dienyl)pyridine]",1.3
7,"C(C=Cc1ccccn1)=Cc1ccncc1 [Ic-59, 1-(2-pyridyl)-4-(4-pyridyl)-1,3-butadiene]",1.5
8,"Fc1ccc(C=CC=Cc2ccccn2)cc1 [Ic-41, 2-[4-(4-fluorophenyl)buta-1,3-dienyl]pyridine]",0.12
9,"FC(F)(F)c1ccc(C=CC=Cc2ccccn2)cc1 [Ic-9, 2-[4-(4-trifluoromethylphenyl)buta-1,3-dienyl]pyridine]",0.15
10,"Cc1ccc(C=CC=Cc2ccccn2)cc1 [Ic-6, 2-(4-p-tolyl-buta-1,3-dienyl)pyridine]",0.46
11,"CN(C)c1ccc(C=CC=Cc2ccccn2)cc1 [Ic-46, dimethyl-[4-(4-pyridin-2-yl-buta-1,3-dienyl)phenyl]amine]",0.38
12,"c1ccc(-c2cnc3ccccc3n2)cc1 [Ia-1, 2-phenylquinoxaline]",0.53
13,"COc1cc(C=CC=Cc2ccccn2)ccc1O [Ic-19, 2-methoxy-4-(4-pyridin-2-yl-buta-1,3-dienyl)phenol]",1.7
14,"C(C=Cc1ccccn1)=Cc1ccccc1 [Ic-1, 2-(4-phenyl-buta-1,3-dienyl)pyridine]",0.78
15,"CSc1ccc(C=CC=Cc2ccccn2)cc1 [Ic-44, 2-[4-(4-methylsulfanylphenyl)buta-1,3-dienyl]pyridine]",0.52
16,"C(C=Cc1ccco1)=Cc1ccccn1 [Ic-78, 2-(4-furan-2-yl-buta-1,3-dienyl)pyridine]",0.95
17,"C(C=Cc1nccs1)=Cc1ccccn1 [Ic-84, 2-(4-thiazol-2-yl-buta-1,3-dienyl)pyridine]",1.2
18,"C(C=Cc1cnc2ccccc2n1)=Cc1ccccc1 [Ic-68, 2-(4-phenyl-buta-1,3-dienyl)quinoxaline]",0.38
19,"C(C=Cc1ccccn1)=Cc1ccccn1 [Ic-48, 1,4-bis-(2-pyridyl)-1,3-butadiene]",0.68
